Data as given in the supplement of paper PMC3334620.
The full ranking holds about 33,000 sequences; the median of “E-score (-0.5 to 0.5)” is about -0.016, and the highest 2% start at about 0.32. Some of the results follow.

Biological target: T1, Stp1 (UniProt B3LFK1)
T1 sequence: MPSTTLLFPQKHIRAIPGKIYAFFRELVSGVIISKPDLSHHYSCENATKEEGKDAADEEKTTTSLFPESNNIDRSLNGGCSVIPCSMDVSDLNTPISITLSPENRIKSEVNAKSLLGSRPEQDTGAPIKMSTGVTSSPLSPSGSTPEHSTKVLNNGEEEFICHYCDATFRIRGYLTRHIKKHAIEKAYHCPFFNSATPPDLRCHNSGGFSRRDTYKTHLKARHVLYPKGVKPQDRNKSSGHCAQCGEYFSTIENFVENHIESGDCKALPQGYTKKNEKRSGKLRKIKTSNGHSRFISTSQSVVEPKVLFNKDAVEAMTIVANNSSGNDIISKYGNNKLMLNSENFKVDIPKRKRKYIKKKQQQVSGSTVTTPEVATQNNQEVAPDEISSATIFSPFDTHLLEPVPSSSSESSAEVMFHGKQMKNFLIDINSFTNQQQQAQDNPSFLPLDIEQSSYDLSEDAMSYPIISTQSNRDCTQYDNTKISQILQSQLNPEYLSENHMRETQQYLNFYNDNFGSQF
Experiment: PBM E-score (8-mer binding enrichment) (E-score (-0.5 to 0.5)); higher = stronger / more preferred TF binding; most listed sequences are background and not binding sites
Details: protein concentration: 200 nM; construct: GST-full length
In short: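 Universal all-10-mer Agilent arrays, fresh or stripped once, were converted to double-stranded form by primer extension. GST-tagged yeast transcription factors from PURExpress in vitro transcription/translation, full-length or DNA-binding domain only, were applied at about 100-200 nM and detected with fluorescent anti-GST. After masliner normalisation, the Universal PBM Analysis Suite scored each ungapped eight-base word together with its reverse complement by E-score.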

Sequence | PBM E-score
ACCACCGC | -0.254
TAGCAAGA | -0.0435
GCTACTAC | 0.0099
ATTTGGAC | 0.0361
CGGTCATA | -0.0538
AAGCACGT | 0.0443
TACAATGA | -0.0864
GGTGAGGA | 0.0236
CTAAATAA | 0.221
CCGCGACA | 0.17
ATTACCCC | -0.206
GCAATCAA | 0.0929
AGCCCGGG | -0.25
GCGGGGTA | -0.147
AATCGCCC | 0.0762
AGGATCAT | -0.122
CTATTCCA | 0.13
TCGGACGA | -0.0439
ACTAAAAT | 0.0948
AGCAACTG | 0.0945
CTGGACAC | -0.303
AACATTCT | 0.215
AACTCGTG | 0.057
AAACTGTT | 0.129
CAGAAGAA | -0.0777

Sequence | PBM E-score
ATGCGGCG | 0.485
AATCCAGA | 0.124
GTCCTGAA | -0.0984
CGTCGCCA | 0.154
CTGCCTAC | 0.0708
AGTCCGGG | -0.199
ATCCAGGG | -0.185
GCTATTCA | -0.0683
GGACCCAA | -0.094
TAACCGTA | -0.119
GAGAGAAA | 0.0555
CCCGCGCG | 0.328
GGCCGGAC | -0.00323
CGGGTGAA | 0.101
GCCAGCTA | -0.185
GACGGATC | -0.0791
AATACGTG | 0.0963
AGTATCTC | 0.142
AAAACATA | 0.212
GACTTTGC | -0.0595
AAAACGTA | 0.0508
CGTTCACC | -0.0967
CGTGAACG | -0.0914
CCATTCCC | -0.206
ACGCTATG | 0.0213

Sequence | PBM E-score
CTAGGATA | -0.0856
GCTTTAAC | 0.0688
ATAAATTG | 0.226
ATTGATTG | 0.178
AAAAATAT | 0.247
GCGATCAC | 0.0835
CAAGGATG | -0.138
AGACCAAC | -0.0615
AAGAGCTA | -0.142
CTTGGCGA | -0.124
ACTCGCCC | -0.18
CCAACCTC | -0.133
GGCTCAAA | 0.266
TAAGCGAA | 0.131
AATCTTGC | 0.118
ACATTTGA | 0.0715
ACGGCCGG | 0.0865
CTAAAGTC | -0.267
TATAACCA | -0.0161
ACTATTAC | 0.063
CCTGGAGC | -0.18
CATAGGCC | -0.225
GTTGCAAC | 0.106
CTACATAA | -0.13
AATGCCGG | 0.137

Sequence | PBM E-score
TAATTAGA | -0.0189
AAGAAACC | 0.0172
ACACGTTC | -0.0175
TGACATCA | 0.00273
AGCCATTA | 0.0537
GTCAGCAA | 0.0285
ACCATCGA | -0.11
ATGCTTGA | 0.0103
AAAGACCC | -0.167
ATCAGCAA | -0.067
ATCACAAG | 0.0279
ACTGGAGA | -0.15
ATGCGCGA | -0.0609
TCGATCCA | 0.0077
GACGTGTA | -0.132
AACACGAA | 0.116
AAGATGCG | 0.0113
CTCCCGGA | -0.245
CTCTTTTC | -0.0026
CTGAGAAA | -0.0403
GGGTATCA | -0.0694
ATCCGATA | -0.0419
AAGTACAA | 0.0248
CACGACAA | -0.015
CTCCCCTC | -0.3

Sequence | PBM E-score
AGGTTTAC | -0.199
AGAGGACT | -0.228
AGTAGTCA | -0.0191
CGGATCCA | 0.052
GCTGAAAA | 0.122
AACACCAC | -0.012
CTATGAAC | 0.0764
GAAGGCTA | -0.0845
ACTCAGAA | 0.0655
AGGTTAAT | -0.0149
CAGACCTG | -0.116
CTTATCTC | -0.0925
AACGAGGG | -0.0424
AAAGCAGT | -0.0168
GAGACAAC | -0.0599
CGGAATGC | 0.0255
ACGTCACG | -0.0529
AATGGCCC | -0.12
AGCTTACC | -0.13
GAGGTGAC | 0.0292
CCATCATA | -0.0792
GAGTGTCC | -0.0383
AATAACCT | -0.0883
AGGCATAC | 0.0863
ACATTCAA | 0.00945

Sequence | PBM E-score
GGTCGTAA | -0.109
ACTCTCTG | -0.177
ATTTGTTC | 0.177
CGCACGCC | 0.292
AGGATTAG | -0.0944
AAGGTGCG | -0.162
GCTGTACC | -0.139
CCGGGACA | -0.109
GTTACGGA | -0.124
AAGCTACC | -0.117
TACTCGCA | -0.0309
ACACTCAA | 0.219
CGCACCGC | 0.0985
ATCGAGGA | -0.017
ATGTATTA | 0.0692
GACATCGA | -0.00828
GGCCCGAC | -0.192
AACTCTTA | 0.0216
CGCTCACC | -0.0817
GCTATACC | -0.103
AGCACCTG | -0.0582
AAACAAGC | 0.105
AACGGTCC | -0.0166
ACCTGCCC | -0.199
AATGCCAA | -0.037

Sequence | PBM E-score
ACAGATGC | -0.0392
AGTGACTA | -0.0544
AACAAACC | 0.172
AACCGACT | -0.0233
CGACTGCA | -0.119
CATCTCCC | -0.182
CGTCCCAA | -0.021
CGCCGCGA | 0.379
GTTAACTA | 0.0936
CTCACCCC | 0.0927
TCAGTAAA | 0.191
CCTCATAC | -0.0134
GCAAAAAC | 0.142
AGGCCATG | -0.0677
ACCTATAG | -0.248
CTCAAGAC | -0.0456
GTTGAAAA | 0.131
AAGGCGAG | -0.158
AAAATTAC | 0.104
CAGTTCAG | -0.0933
ATGGCCAC | -0.113
TAAGAGGA | 0.0314
